The source of these data is patent US20230414778A1, “COMBINATION OF ANTIBODY-DRUG CONJUGATE WITH ANTI-SIRPalpha ANTIBODY” (DAIICHI SANKYO COMPANY, LIMITED, priority 2020, published 2023).

The test system of assay [1] is CD47, HER2 and TROP2 positive human gastric cancer cell line AGS cells. Kind of assay: ADCP activity to cancer cell line. The assay is classed as cell-based.
The target of assay [2] is human SIRPα (Homo sapiens, UniProt P78324). The settings on record: antibodies described in WO 2020/013170; cited from earlier work.
The target in assay [3] is binding between SIRPα and CD47 (Homo sapiens, UniProt P78324). The settings on record: antibodies described in WO 2020/013170; cited from earlier work.

B1: hD13_H1L3: humanized anti-SIRPα antibody, heavy chain residues 20 to 466 of SEQ ID NO: 13, light chain residues 21 to 234 of SEQ ID NO: 16 (antibody)
heavy: QVQLVESGGGVVQPGRSLRLSCAASGFTFSDYGMIWVRQAPGKGLEWVASISSSSSYIYYADSVKGRFTISRDNSKNRLYLQMNSLRAEDTAVYYCARRYYGFNYPFDYWGQGTMVTVSSASTKGPSVFPLAPCSRSTSESTAALGCLVKDYFPEPVTVSWNSGALTSGVHTFPAVLQSSGLYSLSSVVTVPSSSLGTKTYTCNVDHKPSNTKVDKRV[… human IgG4 Fc with S228P F234A L235A (EU numbers) …]
light: DTQLTQSPSSLSASVGQRVTITCGASKSVRTYMHWYQQKPGKQPKLLIYSASNLEAGVPSRFSGSGSGTDFTLTISSLQPEDFATYYCQQSNEPPYTFGQGTKLEIKRTVAAPSVFIFPPSDEQLKSGTASVVCLLNNFYPREAKVQWKVDNALQSGNSQESVTEQDSKDSTYSLSSTLTLSKADYEKHKVYACEVTHQGLSSPVTKSFNRGEC
Regarding B1, the “ADCP activity, anti-SIRPα antibody concentration varied” value in assay [1] (hD13_H1L3 0 to 2000 ng/mL with antibody-drug conjugate (1) constant at 1000 ng/mL (FIG. 31C)) and in assay [1] (hD13_H1L3 0 to 2000 ng/mL with antibody-drug conjugate (2) constant at 1000 ng/mL (FIG. 31D)) was “increased in an anti-SIRPα antibody concentration dependent manner” throughout. For the same molecule, the “binding activity to human SIRPα” value in assay [2] was “high binding activity”. Besides, in assay [3], the “inhibitory activity against the binding between SIRPα and CD47” value is recorded as “high inhibitory activity”.
